Assay results from PubChem BioAssay AID588855 (National Center for Advancing Translational Sciences (NCATS), 2011).
In all, about 410,000 compounds went through this assay and about 5,000 (1.2%) were called active. This list was built around the results that the source calls inconclusive (neither active nor inactive); the mix of calls is not that of the screen. Calls follow the shape of the dose curve; as a rule, active = well fitted inhibition curve with a large enough effect; inconclusive = small, poorly fitted or top-dose-only effect; inactive = no such curve, though single readings can be large or run the other way. Potencies of inconclusive entries are doubtful fits and often do not repeat.

Test: qHTS for Inhibitors of TGF-b; also: nearly all actives have a fitted effect of over 65% in size
Conditions: HepG2 CAGA-GFP TGF-b/SMAD3 reporter, GFP fluorescence, 18 h, TGF-beta stimulated, 500 pg/mL final; series mostly up to 46.1 µM; activity, negative = inhibition: at the top concentration
Procedure, shortened: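 First, reporter cells (HEPG2 CAGA-GFP) rested 2 h at 37 degrees C. Next, compounds were pinned in and TGF-beta added to 500 pg/mL final. After 18 h, GFP was imaged per cell and summed per well.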
% is scaled to controls: 0 for no effect and ±100 for the full control effect; potency is read from the fitted curve at half-maximal effect; tags tell the direction and shape of the fitted curve.

Question: Which Potency does the source give for COc1ccccc1-c1cc(C(F)(F)F)nc(S(=O)(=O)CCCC(=O)Nc2ccccc2F)n1 here?
Answer: active: 3.55 µM

Question: Which “activity, negative = inhibition” value does the source give for CC(=O)c1c2c3c(cccc3n(C)c1=O)C(=O)c1ccccc1-2 here?
Answer: inactive: 12.6%

Question: Which “activity, negative = inhibition” value does the source give for CCc1c(CN2CCN(c3ccc(F)cc3)CC2)csc1C here?
Answer: inactive: -17.8%

Question: Which Potency does the source give for CC(=O)c1cccc(-n2nnnc2SCC(=O)Nc2ccccc2N2CCCCC2)c1 here?
Answer: inconclusive: 35.5 µM [inhibitor, partial curve, poor fit]

Question: For O=C(NC1CCCC(C(F)(F)F)C1)c1ccc([N+](=O)[O-])o1 (stereo unspecified), which Potency is on record?
Answer: active: 10 µM

Question: For COc1ccc(Cn2c(SCc3ccc(C(=O)NC4CCCCC4)cc3)nc3cccnc32)cc1, which “activity, negative = inhibition” value is on record?
Answer: inactive: 4.87%

Question: With CC1(c2ccccc2)NC(=O)N(CC(=O)Nc2cc(C(F)(F)F)ccc2N2CCCCC2)C1=O (stereo unspecified) as the compound, how does the Potency read?
Answer: inconclusive: 35.5 µM [inhibitor, single point]

Question: For COc1ccc(Nc2ncnc3scc(-c4ccc(F)cc4)c23)cc1, which Potency is on record?
Answer: inconclusive: 35.5 µM [inhibitor, single point]

Question: For O=C(CCl)NNC(=O)c1c(O)c2ccccc2[nH]c1=O, which Potency is on record?
Answer: inconclusive: 20 µM [inhibitor, single point]

Question: With CC(=O)C1=C(C)NC(SCC(=O)Nc2nc3ccccc3s2)=C(C#N)C1c1ccc(Cl)cc1 (stereo unspecified) as the compound, how does the Potency read?
Answer: inconclusive: 22.4 µM [inhibitor, single point]

Question: For CC(C)(C)N=C1NN=C(c2ccc(Cl)cc2)CS1, which Potency is on record?
Answer: inconclusive: 31.6 µM [inhibitor, single point]

Question: With COc1ccc(-c2nc3ccccc3n2Cc2ccc(C(C)C)cc2)cc1 as the compound, how does the Potency read?
Answer: inconclusive: 25.1 µM [inhibitor, single point]

Question: For O=C(NCCOc1ccc(F)cc1)C1CCC(=O)N(CCc2ccccn2)C1 (stereo unspecified), which “activity, negative = inhibition” value is on record?
Answer: inactive: -1.3%

Question: Which “activity, negative = inhibition” value does the source give for CC(C)(C)OC(=O)N[C@@H](Cc1ccccc1)c1nnc(SCC(=O)O)o1 here?
Answer: inactive: 25%

Question: With Cn1nnnc1SCC(=O)Nc1cc(S(=O)(=O)N2CCCCC2)ccc1Cl as the compound, how does the “activity, negative = inhibition” value read?
Answer: inactive: -3.95%

Question: Which Potency does the source give for Cc1cc(Cl)c(Cl)cc1S(=O)(=O)NCCCn1ccnc1 here?
Answer: inconclusive: 3.55 µM [inhibitor, partial curve, poor fit]

Question: With COc1ccc(/C=N/Nc2cc(OC)ncn2)cc1 as the compound, how does the “activity, negative = inhibition” value read?
Answer: inactive: 7.32%

Question: Which “activity, negative = inhibition” value does the source give for COc1ccc(N(C)C(=O)C2CCCN2S(=O)(=O)c2cccc3nsnc23)c(OC)c1 (stereo unspecified) here?
Answer: inactive: 3.93%

Question: With Cc1cccc(NC(=O)c2ncn3c2C(=O)NC[C@H]3C)c1 as the compound, how does the “activity, negative = inhibition” value read?
Answer: inactive: -15.2%

Question: With COc1cc(C2C3=C(COC3=O)Oc3cc4c(cc32)OCO4)cc(OC)c1O (stereo unspecified) as the compound, how does the Potency read?
Answer: inconclusive: 0.631 µM [inhibitor, full curve]

Question: Which Potency does the source give for CCOc1ccc(NC(=O)NC(C)c2c(-n3cccc3)sc3c2CCN(CC)C3)cc1 (stereo unspecified) here?
Answer: inconclusive: 35.5 µM [inhibitor, single point]

Question: For COc1cccc(CCNC(=O)c2ccc(Cn3c(SCc4ccccc4)nc4cccnc43)cc2)c1, which Potency is on record?
Answer: inconclusive: 17.8 µM [inhibitor, single point]

Question: For O=C(Nc1ccc2nc(SCCOc3ccccc3)sc2c1)c1ccco1, which Potency is on record?
Answer: inconclusive: 10 µM [inhibitor, partial curve]

Question: Which Potency does the source give for Cc1cccn2c(=O)c3cc(C(=O)NC(C)C)n(C)c3nc12 here?
Answer: inconclusive: 35.5 µM [inhibitor, single point]

Question: Which Potency does the source give for O=C(Nc1ccc(S(=O)(=O)N2CCCC2)cc1)c1ccc2c(=O)n3c(nc2c1)CCCCC3 here?
Answer: inconclusive: 0.501 µM [inhibitor, full curve, poor fit]

Question: With Cc1cccc(-c2nc3cc(NC(=O)c4ccc(OCC(C)C)cc4)ccc3o2)c1 as the compound, how does the “activity, negative = inhibition” value read?
Answer: inactive: -3.79%

Question: For CC(C)(C)N1CC2(c3ccccc3)CN(C(C)(C)C)CC(c3ccccc3)(C1)C2=O, which Potency is on record?
Answer: inconclusive: 28.2 µM [inhibitor, single point]

Question: Which Potency does the source give for Cc1ccc(NC(=O)c2ccc(S(=O)(=O)N3CCC(C)CC3)cc2)nc1 here?
Answer: inconclusive: 35.5 µM [inhibitor, single point]

Question: For Cc1ccc(C(=O)N/C(=C/c2ccccc2F)C(=O)NCCCn2ccnc2)cc1, which “activity, negative = inhibition” value is on record?
Answer: inactive: 8%

Question: With COc1cc(CN2CC(=O)N(c3cc(Cl)ccc3C)C2=S)cc(OC)c1OC as the compound, how does the Potency read?
Answer: inconclusive: 14.1 µM [inhibitor, single point]

Question: Which Potency does the source give for O=C(Nc1cccc(Br)c1)Nc1nc2c(s1)CCCCCC2 here?
Answer: active: 11.2 µM

Question: With COc1cc2c(C(=O)N3CCN(c4cccc(Cl)c4)CC3)cn(C)c(=O)c2cc1OC as the compound, how does the Potency read?
Answer: inconclusive: 5.62 µM [inhibitor, single point]

Question: With CC(=Nc1ccccc1)C1=C(O)C(Cc2ccccc2)NC1=O (stereo unspecified) as the compound, how does the Potency read?
Answer: inconclusive: 0.708 µM [inhibitor, full curve]

Question: With CC(C)NC(=O)c1ccc(COc2cc(Cl)ccc2Cl)o1 as the compound, how does the “activity, negative = inhibition” value read?
Answer: inactive: -5.71%

Question: For COc1ccc(-c2cc(NC(C)=O)c3ncc(-c4ccc(OC)c(OC)c4)n3c2)c(OC)c1, which “activity, negative = inhibition” value is on record?
Answer: inactive: 64.5%

Question: Which Potency does the source give for OC1(c2ccc(Br)cc2)CCNCC1 here?
Answer: inconclusive: 35.5 µM [inhibitor, single point]

Question: With COc1ccc(N2C(=O)CS/C2=N\C(=S)Nc2ccccc2)cc1 as the compound, how does the Potency read?
Answer: inconclusive: 0.562 µM [inhibitor, partial curve, poor fit]

Question: Which “activity, negative = inhibition” value does the source give for Cc1ccc(-c2cc(C(=O)NCCCN3CCOCC3)no2)cc1 here?
Answer: inactive: -1.75%

Question: For COc1ccc(CCNC(=O)C(=O)NCC(c2ccco2)S(=O)(=O)c2cccs2)cc1 (stereo unspecified), which “activity, negative = inhibition” value is on record?
Answer: inactive: 25.7%

Question: For COc1ccc(-n2c(SCC(=O)Nc3ccc(C(=O)O)cc3)nnc2-c2ccccc2)cc1OC, which “activity, negative = inhibition” value is on record?
Answer: inactive: 4.05%

Question: For O=C(NNC(=S)Nc1ccccc1)c1cc(Br)ccc1Cl, which Potency is on record?
Answer: active: 14.1 µM

Question: For CN(C)/C=C/c1c([N+](=O)[O-])c2ccc(O)cc2n1-c1ccccc1, which Potency is on record?
Answer: inconclusive: 35.5 µM [inhibitor, single point]

Question: For c1csc(C2Nc3cccc4cccc(c34)N2)c1, which “activity, negative = inhibition” value is on record?
Answer: inactive: 0.107%

Question: Which Potency does the source give for Cc1ccc(NS(=O)(=O)c2ccc(-n3cccn3)cc2)cc1C here?
Answer: inconclusive: 10 µM [inhibitor, partial curve, poor fit]

Question: Which “activity, negative = inhibition” value does the source give for COc1ccc(C(=O)NCC(=O)NCc2ccncc2)cc1 here?
Answer: inactive: -2.37%

Question: Which Potency does the source give for CCc1noc(-c2ccc(N3CCC(C)CC3)c([N+](=O)[O-])c2)n1 here?
Answer: inconclusive: 0.224 µM [inhibitor, full curve, poor fit]

Question: With Cc1cccc(N2CCN(C(=O)COc3ccc4ccc(=O)oc4c3)CC2)c1C as the compound, how does the Potency read?
Answer: inconclusive: 10 µM [inhibitor, single point]

Question: For O=C(NCCc1ccco1)C(=O)NCC1OCCCN1S(=O)(=O)c1ccc(Cl)cc1 (stereo unspecified), which Potency is on record?
Answer: inconclusive: 0.708 µM [inhibitor, full curve, poor fit]

Question: Which “activity, negative = inhibition” value does the source give for COc1ccc(-n2c(SCC(=O)Nc3ccccc3)nc3c(c2=O)SCC3)cc1 here?
Answer: inactive: 1.13%

Question: For CCn1c(=O)c(=O)n(CC)c2cc(N3CCCCC3)c(NC(=O)c3ccc(OC)c(OC)c3)cc21, which “activity, negative = inhibition” value is on record?
Answer: inactive: 1.04%

Question: For COc1cc(C(=O)Nc2sc3c(c2C(N)=O)CCC(C)C3)cc(OC)c1OC (stereo unspecified), which “activity, negative = inhibition” value is on record?
Answer: inactive: -3.45%

Question: Which Potency does the source give for CCOC(=O)c1c(NC(=O)COC(=O)/C=C/c2ccco2)sc2c1CC(C)(C)NC2(C)C here?
Answer: inconclusive: 35.5 µM [inhibitor, single point]

Question: For O=C(Nc1cnn(Cc2ccc(F)cc2)c1)C(c1ccccc1)c1ccccc1, which Potency is on record?
Answer: active: 12.6 µM

Question: With Cn1ccc2c(N3CCCCCCC3)cc3c(c21)C1CCC3O1 (stereo unspecified) as the compound, how does the Potency read?
Answer: inconclusive: 35.5 µM [inhibitor, single point]

Question: With CNC(=O)COC(=O)C1CCN(S(=O)(=O)c2ccc3c(c2)OCCO3)CC1 as the compound, how does the “activity, negative = inhibition” value read?
Answer: inactive: -7.44%

Question: With CC(C)c1cc(NC(=O)CCl)on1 as the compound, how does the Potency read?
Answer: inconclusive: 35.5 µM [inhibitor, single point]

Question: Which Potency does the source give for CCc1ccc(S(=O)(=O)NCc2cccn2Cc2cccc(C)c2)cc1 here?
Answer: inconclusive: 35.5 µM [inhibitor, single point]

Question: For Cc1cccc(CN2CCN(C3CN(Cc4ccc([N+](=O)[O-])cc4)S(=O)(=O)C3)CC2)c1 (stereo unspecified), which Potency is on record?
Answer: inconclusive: 25.1 µM [inhibitor, partial curve, poor fit]

Question: With O=C(CSc1nc2c([nH]c3ccccc32)c(=O)n1-c1ccc(Cl)cc1)NCc1ccccc1 as the compound, how does the “activity, negative = inhibition” value read?
Answer: inactive: 1.39%

Question: For N=C1C=CC(=C(c2ccc(N)cc2)c2ccc(N)cc2)C=C1, which Potency is on record?
Answer: inconclusive: 15.8 µM [inhibitor, single point]

Question: With CCN(CC)C(=O)COC(=O)c1cc(-c2ccco2)nc2ccccc12 as the compound, how does the Potency read?
Answer: inconclusive: 25.1 µM [inhibitor, single point]

Question: With Cc1ccc(S(=O)(=O)N(CC(=O)N/N=C/c2cccc(C)c2)c2cccc3cccnc23)cc1 as the compound, how does the Potency read?
Answer: inconclusive: 3.55 µM [inhibitor, single point]

Question: Which Potency does the source give for COc1ccccc1NC(=S)N/N=C/c1cccc(C)c1 here?
Answer: inconclusive: 17.8 µM [inhibitor, single point]

Question: With CCOc1ccc(S(=O)(=O)N2CCC(C(=O)NCc3cccnc3)CC2)cc1C as the compound, how does the Potency read?
Answer: inconclusive: 15.8 µM [inhibitor, single point]

Question: For Cc1cc(C)cc(NC(=O)CSc2nc3c(c(=O)n2C)SC(C)C3)c1 (stereo unspecified), which “activity, negative = inhibition” value is on record?
Answer: inactive: -1.48%

Question: Which Potency does the source give for COc1ccc(Cl)cc1NC(=O)CN(c1cccc(C)c1C)S(C)(=O)=O here?
Answer: inconclusive: 31.6 µM [inhibitor, single point]

Question: For CCc1ccc(C2N=C(N)Nc3nc4ccccc4n32)cc1 (stereo unspecified), which “activity, negative = inhibition” value is on record?
Answer: inactive: 14%

Question: For C[C@@H]1CN([C@@H](C)CO)C(=O)c2cccc(NC(=O)C3CCCCC3)c2O[C@@H]1CN(C)Cc1ccc(Cl)c(Cl)c1, which Potency is on record?
Answer: inconclusive: 17.8 µM [inhibitor, partial curve, poor fit]

Question: With Cc1ccc(-n2ncc(C(=O)NCCc3ccsc3)c2C2CCN(C(=O)OC(C)(C)C)CC2)c(C)c1 as the compound, how does the Potency read?
Answer: inconclusive: 11.2 µM [inhibitor, partial curve, poor fit]

Question: With Nc1nc(-c2ccc(Br)cc2)cs1 as the compound, how does the “activity, negative = inhibition” value read?
Answer: inactive: -8.17%

Question: Which Potency does the source give for C=C(C)COc1ccc(-c2n[nH]c(C)c2-c2ccccc2OC)c(O)c1 here?
Answer: inconclusive: 22.4 µM [inhibitor, single point]
